Data: US20090291999A1, “Agent Exhibiting a Neurotropic, Neuromodulator, Cerebrovascular and Anti-Stroke Activity” (AKHAPKINA, Valentina Ivanovna, priority 2006, published 2009)

System: rats with distal occlusion of medial cerebral artery (OMCA)
Assay: Ischemic stroke (OMCA) model: neurologic status on McGrow's Stroke-index scale
Experimental: For this study a model of local cerebral ischemia was used for rats with distal occlusion of medial cerebral artery (OMCA), which was first described by S. T. Chen (1989). The heads of animals, which were narcotized with chloral hydrate (300 mg/Kg, intraperitoneally), were rigidly fixed in a lateral position, left side upwards. After cutting the skin in the middle between the left auricle and the left eye temporal muscle fibers were moved apart up to the skull surface. Using a dental drilling machine with a bur 0.5 mm in diameter, a hole app.
With the use of a microscope (Olympus SZ-CTV), under a big magnification (14.0×3.3), a special metal hook was placed under the left medial cerebral artery. Occlusion of the medial cerebral artery was performed by a method of electrocoagulation proximally the place of its bifurcation into the frontal and the parietal branches. At this time in the visual field of the microscope stoppage of the blood flow along the medial cerebral artery upstream the place of occlusion could be observed. After the operation the wound was closed layer-by-layer, and ipsilateral occlusion of the common carotid artery was performed.
Neurologic status of the animals was determined on the McGrow's Stroke-index scale for Mongolian gerbils (McGrow, 1977) in the modification by I. V. Gannushkina (1996). Evaluation was carried out by scores. If several symptoms of neurological deficit were present in animals, status severity was determined as a sum of corresponding scores. Numbers of rats with light (Stroke-index from 0.5 to 2.5) and severe (Stroke-index from 3 to 10) neurologic symptomatology were counted.
The studies were carried out on male rats of the Vistar line (250-300 grams) held in a vivarium with free access to meals and water and at 12-hour mode of changing day and night.
In the course of the study the animals were randomly distributed over 11 groups. Phenotropil in doses of 100 mg/Kg, 200 mg/Kg and 300 mg/Kg was injected intraperitoneally in three groups of animals 60 minutes prior to the operation and in three groups of animals in 5 minutes after the operation. A saline was injected in falsely operated animals. Then the solutions were injected once on the 2nd and the 3rd days. The solutions were injected strictly at the same time of the days±3 minutes.

[1] = Group 4: 200 mg/Kg, falsely operated, 1 day
[2] = Group 4: 200 mg/Kg, falsely operated, 2 days
[3] = Group 4: 200 mg/Kg, falsely operated, 3 days
[4] = Group 6: 100 mg/Kg intraperitoneally 60 minutes prior to OMCA, 1 day
[5] = Group 6: 100 mg/Kg intraperitoneally 60 minutes prior to OMCA, 2 days
[6] = Group 6: 100 mg/Kg intraperitoneally 60 minutes prior to OMCA, 3 days
[7] = Group 7: 200 mg/Kg intraperitoneally 60 minutes prior to OMCA, 1 day
[8] = Group 7: 200 mg/Kg intraperitoneally 60 minutes prior to OMCA, 2 days
[9] = Group 7: 200 mg/Kg intraperitoneally 60 minutes prior to OMCA, 3 days
[10] = Group 8: 300 mg/Kg intraperitoneally 60 minutes prior to OMCA, 1 day
[11] = Group 8: 300 mg/Kg intraperitoneally 60 minutes prior to OMCA, 2 days
[12] = Group 8: 300 mg/Kg intraperitoneally 60 minutes prior to OMCA, 3 days
[13] = Group 9: 100 mg/Kg intraperitoneally in 5 minutes after OMCA, 1 day
[14] = Group 9: 100 mg/Kg intraperitoneally in 5 minutes after OMCA, 2 days
[15] = Group 9: 100 mg/Kg intraperitoneally in 5 minutes after OMCA, 3 days
[16] = Group 10: 200 mg/Kg intraperitoneally in 5 minutes after OMCA, 1 day
[17] = Group 10: 200 mg/Kg intraperitoneally in 5 minutes after OMCA, 2 days
[18] = Group 10: 200 mg/Kg intraperitoneally in 5 minutes after OMCA, 3 days
[19] = Group 11: 300 mg/Kg intraperitoneally in 5 minutes after OMCA, 1 day
[20] = Group 11: 300 mg/Kg intraperitoneally in 5 minutes after OMCA, 2 days
[21] = Group 11: 300 mg/Kg intraperitoneally in 5 minutes after OMCA, 3 days

SMILES: NC(=O)CN1CC(c2ccccc2)CC1=O (stereo not drawn) [Phenotropil, N-carbomoyl-methyl-4-phenyl-2-pyrrolidon]
- Number of animals with flabbiness, slowness of motions [1]: 4
- Number of animals with manege movements [1]: 0
- Number of animals with tremor [1]: 2
- Number of animals with unilateral semiptosis [1]: 3
- Number of animals with flabbiness, slowness of motions [2]: 0
- Number of animals with manege movements [2]: 0
- Number of animals with tremor [2]: 0
- Number of animals with unilateral semiptosis [2]: 4
- Number of animals with flabbiness, slowness of motions [3]: 0
- Number of animals with manege movements [3]: 0
- Number of animals with tremor [3]: 0
- Number of animals with unilateral semiptosis [3]: 0
- Number of animals with flabbiness, slowness of motions [4]: 2
- Number of animals with manege movements [4]: 0
- Number of animals with tremor [4]: 2
- Number of animals with unilateral semiptosis [4]: 4
- Number of animals with flabbiness, slowness of motions [5]: 1
- Number of animals with manege movements [5]: 0
- Number of animals with tremor [5]: 0
- Number of animals with unilateral semiptosis [5]: 5
- Number of animals with flabbiness, slowness of motions [6]: 1
- Number of animals with manege movements [6]: 0
- Number of animals with tremor [6]: 0
- Number of animals with unilateral semiptosis [6]: 3
- Number of animals with flabbiness, slowness of motions [7]: 3
- Number of animals with manege movements [7]: 0
- Number of animals with tremor [7]: 3
- Number of animals with unilateral semiptosis [7]: 4
- Number of animals with flabbiness, slowness of motions [8]: 1
- Number of animals with manege movements [8]: 0
- Number of animals with tremor [8]: 0
- Number of animals with unilateral semiptosis [8]: 5
- Number of animals with flabbiness, slowness of motions [9]: 1
- Number of animals with manege movements [9]: 0
- Number of animals with tremor [9]: 0
- Number of animals with unilateral semiptosis [9]: 3
- Number of animals with flabbiness, slowness of motions [10]: 2
- Number of animals with manege movements [10]: 0
- Number of animals with tremor [10]: 2
- Number of animals with unilateral semiptosis [10]: 4
- Number of animals with flabbiness, slowness of motions [11]: 1
- Number of animals with manege movements [11]: 0
- Number of animals with tremor [11]: 0
- Number of animals with unilateral semiptosis [11]: 5
- Number of animals with flabbiness, slowness of motions [12]: 0
- Number of animals with manege movements [12]: 0
- Number of animals with tremor [12]: 0
- Number of animals with unilateral semiptosis [12]: 3
- Number of animals with flabbiness, slowness of motions [13]: 5
- Number of animals with manege movements [13]: 0
- Number of animals with tremor [13]: 3
- Number of animals with unilateral semiptosis [13]: 4
- Number of animals with flabbiness, slowness of motions [14]: 3
- Number of animals with manege movements [14]: 0
- Number of animals with tremor [14]: 0
- Number of animals with unilateral semiptosis [14]: 5
- Number of animals with flabbiness, slowness of motions [15]: 2
- Number of animals with manege movements [15]: 0
- Number of animals with tremor [15]: 0
- Number of animals with unilateral semiptosis [15]: 3
- Number of animals with flabbiness, slowness of motions [16]: 5
- Number of animals with manege movements [16]: 0
- Number of animals with tremor [16]: 3
- Number of animals with unilateral semiptosis [16]: 3
- Number of animals with flabbiness, slowness of motions [17]: 3
- Number of animals with manege movements [17]: 0
- Number of animals with tremor [17]: 0
- Number of animals with unilateral semiptosis [17]: 4
- Number of animals with flabbiness, slowness of motions [18]: 1
- Number of animals with manege movements [18]: 0
- Number of animals with tremor [18]: 0
- Number of animals with unilateral semiptosis [18]: 3
- Number of animals with flabbiness, slowness of motions [19]: 4
- Number of animals with manege movements [19]: 0
- Number of animals with tremor [19]: 3
- Number of animals with unilateral semiptosis [19]: 4
- Number of animals with flabbiness, slowness of motions [20]: 2
- Number of animals with manege movements [20]: 0
- Number of animals with tremor [20]: 0
- Number of animals with unilateral semiptosis [20]: 5
- Number of animals with flabbiness, slowness of motions [21]: 1
- Number of animals with manege movements [21]: 0
- Number of animals with tremor [21]: 0
- Number of animals with unilateral semiptosis [21]: 3
